{"source": "PubChem BioAssay AID686971", "about": "(National Center for Advancing Translational Sciences (NCATS), 2013)", "note": "Among all 360,000 compounds or so, about 7,500 (2.1%) were called active. Inconclusive results, whose numbers are uncertain, are shown with a selection of clear calls. Calls follow the shape of the dose curve; as a rule, active = well fitted cell-killing curve with a large enough effect; inconclusive = small, poorly fitted or top-dose-only effect, or effect the other way, or another doubt; inactive = no such curve, though single readings can be large or run the other way. No potency is given beside an inconclusive call; the fits are too rough. Potency is read from the fitted curve at half-maximal effect; tags tell the direction and shape of the fitted curve."}
{"assay": "qHTS for induction of synthetic lethality in tumor cells producing 2HG: qHTS for the HT-1080-IDH1KD cell line", "settings": "HT-1080 IDH1 knockdown viability, ATP luminescence, 48 h; series mostly up to 46.1 µM", "summary_of_the_method": "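IDH1KD HT-1080 cells, 750/well, RPMI + 5% FBS; compound pinned after 2 h settling; 48 h, 37 °C; CellTiter-Glo luminescence; % activity normalised to DMSO and no-cell wells; curves fitted, classed by r2 and efficacy.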"}
{"compound": "O=C(NCCCN1CCOCC1)c1ccc(CSCc2cccc(Cl)c2)o1", "Potency": "inactive"}
{"compound": "COc1ccc(N(CC(=O)Nc2ccc3c(c2)OCO3)S(=O)(=O)c2ccc(F)cc2)cc1", "Potency": "inactive"}
{"compound": "CCN(CC)CCNC(=O)c1ccc(NC(=O)/C=C/c2cc(OC)c(OC)c(OC)c2)cc1", "Potency": "inconclusive [cytotoxic, single point]"}
{"compound": "O=C(c1ccco1)n1c(=S)nc2ccccn21", "Potency": "inconclusive [cytotoxic, single point]"}
{"compound": "O=C(NNc1cc(Cl)cc(Cl)c1)c1cccs1", "Potency": "inconclusive [cytotoxic, partial curve]"}
{"compound": "Cc1ccc(NC(=O)NCCN2CCCCC2)cc1", "Potency": "inactive"}
{"compound": "O=C(Nc1ccccn1)c1ccc(-c2ccccc2)cc1", "Potency": "inconclusive [cytotoxic, single point]"}
{"compound": "O=C(Nc1ccc2c(c1)oc1ccccc12)c1ccc2c(c1)OCO2", "Potency": "inconclusive [cytotoxic, single point]"}
{"compound": "COc1ccc(-c2oc(=O)c3cc(OC)c(OC)cc3c2C(F)(F)F)cc1", "Potency": "inactive"}
{"compound": "COc1cc(OC)cc(C(=O)NNC(=S)Nc2ccc(S(N)(=O)=O)cc2)c1", "Potency": "inconclusive [cytotoxic, single point]"}
{"compound": "O=C(N/N=C/c1c(Cl)[nH]c2ccccc12)c1sc2ccccc2c1Cl", "Potency": "inconclusive [cytotoxic, single point]"}
{"compound": "Cc1ccc(OCCCCNC2CCCCC2)c(C)c1", "Potency": "inconclusive [cytotoxic, single point]"}
{"compound": "Cc1cccc2nc(-c3ccccc3)nc(N[C@@H](CO)c3ccccc3)c12", "Potency": "inconclusive [cytotoxic, single point]"}
{"compound": "O=C(Nc1cc(F)ccc1F)C1CCN(S(=O)(=O)c2cccc3nonc23)CC1", "Potency": "inactive"}
{"compound": "Cc1ccc(S(=O)(=O)N2CCCN(S(=O)(=O)c3ccc(C(F)(F)F)cc3)CC2)cc1", "Potency": "inconclusive [cytotoxic, single point]"}
{"compound": "O=C(Nc1ccc(N2CCOCC2)cc1)c1ccc2c(c1)OCO2", "Potency": "inconclusive [cytotoxic, partial curve]"}
{"compound": "O=C(Nc1nnc(-c2ccncc2)o1)c1ccc(Br)s1", "Potency": "inconclusive [cytotoxic, full curve]"}
{"compound": "CCC1CCc2c(sc(NC(=O)c3cccnc3)c2C(N)=O)C1", "note": "(stereo not given)", "Potency": "inconclusive [rising, partial curve, poor fit]"}
{"compound": "CCCCOC(=O)Nc1nnc(CC(=O)NCc2ccccc2)s1", "Potency": "active: 5.17 µM"}
{"compound": "c1ccc(CN2CCN(CCOCCOc3cccc4ccccc34)CC2)cc1", "Potency": "inconclusive [cytotoxic, single point]"}
{"compound": "Cc1cc(NCc2ccccn2)ccc1Br", "Potency": "inactive"}
{"compound": "CC(=O)C1=C(S(=O)(=O)c2ccc(C)cc2)CS(=O)(=O)C1", "Potency": "inconclusive [cytotoxic, single point]"}
{"compound": "CC(C)C[C@H](NC(=O)c1nc[nH]c1C(=O)N1CCN(C(=O)OC(C)(C)C)CC1)C(=O)OCc1ccccc1", "Potency": "inactive"}
{"compound": "Cc1ccc(-c2cc(C(=O)N/N=C/c3ccccc3O)n[nH]2)o1", "Potency": "inconclusive [cytotoxic, partial curve]"}
{"compound": "CCCc1cc(C(=O)N2CCCC(Cc3cccc(Cl)c3)(C(=O)OCC)C2)n(C)n1", "note": "(stereo not given)", "Potency": "inconclusive [cytotoxic, single point]"}
{"compound": "CCc1ccc(CC2S/C(=C(\\C#N)C(C)=O)NC2=O)cc1", "note": "(stereo not given)", "Potency": "inconclusive [cytotoxic, partial curve]"}
{"compound": "C#CC[N+]1(CC#Cc2cccc(C)c2)CCCCC1", "Potency": "inconclusive [cytotoxic, single point]"}
{"compound": "Cc1ccc(O)c(NC(=S)NC(=O)COc2ccc(Br)cc2)c1", "Potency": "inconclusive [cytotoxic, single point]"}
{"compound": "COc1cccc(/C=N/Nc2ccc([N+](=O)[O-])cn2)c1O", "Potency": "active: 1.16 µM"}
{"compound": "CCOC(=O)C1=C(CN2CCc3ccccc32)NC(=O)NC1c1ccc(Cl)cc1", "note": "(stereo not given)", "Potency": "inconclusive [cytotoxic, single point]"}
{"compound": "O=C1COc2ccc(C(=O)CCl)cc2N1", "Potency": "inactive"}
{"compound": "CC(C)C1C(=O)N(Cc2cn(CC3CCCCC3)nn2)CCS(=O)(=O)N1Cc1ccc(-c2cccc(CO)c2)cc1", "note": "(stereo not given)", "Potency": "inconclusive [cytotoxic, single point]"}
{"compound": "O=C(Cc1ccccc1F)Nc1ccc(S(=O)(=O)N2CCCC2)cc1", "Potency": "inactive"}
{"compound": "CCN1C=C(Cc2cccs2)C2=C(C1)C(c1cccs1)C(C#N)=C(N)O2", "note": "(stereo not given)", "Potency": "inconclusive [cytotoxic, partial curve]"}
{"compound": "Fc1ccccc1CNCCC(Cc1ccccc1)c1ccc2c(c1)OCO2", "note": "(stereo not given)", "Potency": "inconclusive [cytotoxic, single point]"}
{"compound": "C=CCSc1nccc(-c2nn(-c3ccc(C)cc3)ccc2=O)n1", "Potency": "inconclusive [cytotoxic, partial curve]"}
{"compound": "O=C(N/C=N/OCc1ccc(Cl)cc1Cl)NOCc1ncc(C(F)(F)F)cc1Cl", "Potency": "active: 25.9 µM"}
{"compound": "NS(=O)(=O)c1ccc(N/N=C/c2ccccc2Br)cc1", "Potency": "inconclusive [cytotoxic, single point]"}
{"compound": "CCc1ccc(-c2cc3c(=O)n(CC(=O)NCCCN4CCN(CC)CC4)nc(C)n3n2)cc1", "Potency": "inconclusive [cytotoxic, partial curve]"}
{"compound": "CCC(=O)N1CCCC1(C)C(=O)Nc1ccc2nc(C)ccc2c1", "note": "(stereo not given)", "Potency": "inconclusive [rising, partial curve]"}
{"compound": "CC(OC(=O)c1cc(Br)ccc1O)C(=O)Nc1ccc(S(=O)(=O)N2CCCC2)cc1", "note": "(stereo not given)", "Potency": "inconclusive [cytotoxic, single point]"}
{"compound": "CCN1CCN(C(=O)c2c(-c3ccccc3)noc2C)CC1", "Potency": "inactive"}
{"compound": "CCC1=NC(c2ccccc2Cl)N(O)C1(C)C", "note": "(stereo not given)", "Potency": "inactive"}
{"compound": "CCN(CC)CCCNc1oc(-c2cccc(Cl)c2)nc1C#N", "Potency": "inconclusive [cytotoxic, single point]"}
{"compound": "Cc1ccc(Cn2nnc3c(=O)[nH]c(C4CCN(C(=O)Cc5cccs5)CC4)nc32)cc1", "Potency": "inconclusive [cytotoxic, single point]"}
